# Article PMC4336329 (PLoS ONE, 2015)
# Hit rate of the full screen: of about 310,000 compounds, about 14,000 (4.5%) showed an effect of 50% or more. Effects have a minus sign here. The list shows a part of the results.
# Biological target: human ether-à-go-go-related gene (hERG) potassium channel (human, UniProt Q12809)
# Experiment: primary screen, population patch clamp on CHO cells stably expressing hERG
# 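Also: peak tail current of the secondary pulse compared with the same well before compound.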
# Chain of human ether-à-go-go-related gene (hERG) potassium channel (Q12809 whole entry, looked up): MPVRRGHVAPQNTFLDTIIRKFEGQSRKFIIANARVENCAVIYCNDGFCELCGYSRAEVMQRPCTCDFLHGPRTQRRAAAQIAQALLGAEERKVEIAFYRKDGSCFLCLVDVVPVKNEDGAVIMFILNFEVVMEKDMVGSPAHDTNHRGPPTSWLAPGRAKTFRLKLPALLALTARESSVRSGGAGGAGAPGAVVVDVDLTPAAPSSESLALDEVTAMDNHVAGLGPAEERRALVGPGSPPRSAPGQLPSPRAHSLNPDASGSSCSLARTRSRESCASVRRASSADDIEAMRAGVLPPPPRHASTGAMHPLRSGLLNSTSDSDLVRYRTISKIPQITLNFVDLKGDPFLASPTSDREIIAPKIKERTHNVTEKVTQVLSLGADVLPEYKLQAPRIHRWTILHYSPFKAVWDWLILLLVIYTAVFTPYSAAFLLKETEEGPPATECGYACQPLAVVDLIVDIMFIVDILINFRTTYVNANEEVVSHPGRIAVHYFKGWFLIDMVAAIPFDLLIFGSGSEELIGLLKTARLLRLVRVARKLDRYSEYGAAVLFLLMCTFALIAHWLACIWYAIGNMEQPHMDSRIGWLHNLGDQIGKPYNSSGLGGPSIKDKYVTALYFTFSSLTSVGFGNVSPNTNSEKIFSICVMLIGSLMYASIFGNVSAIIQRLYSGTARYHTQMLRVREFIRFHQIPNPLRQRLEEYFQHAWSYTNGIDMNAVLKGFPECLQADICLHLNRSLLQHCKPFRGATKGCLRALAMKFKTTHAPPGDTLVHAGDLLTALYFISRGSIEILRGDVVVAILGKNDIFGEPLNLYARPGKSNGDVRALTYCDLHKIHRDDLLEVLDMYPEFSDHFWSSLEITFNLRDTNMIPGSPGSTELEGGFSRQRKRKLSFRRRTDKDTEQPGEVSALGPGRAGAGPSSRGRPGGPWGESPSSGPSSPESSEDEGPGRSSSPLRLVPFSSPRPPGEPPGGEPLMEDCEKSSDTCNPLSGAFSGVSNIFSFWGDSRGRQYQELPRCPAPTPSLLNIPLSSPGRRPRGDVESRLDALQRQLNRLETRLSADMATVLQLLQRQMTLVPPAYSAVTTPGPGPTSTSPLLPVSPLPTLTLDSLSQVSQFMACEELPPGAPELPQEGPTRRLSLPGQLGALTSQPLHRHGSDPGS
row,SMILES,"hERG current change (%, negative = inhibition) at 10uM [%]"
1,O=C1CCc2cc(NS(=O)(=O)c3ccc(F)cc3)cc3c2N1CC3,-21.2
2,Cc1cccc(C(=O)c2cnc3ccccc3c2-c2ccccc2)c1,-0.792
3,O=C1NC(=O)N(Cc2cccs2)C(=O)/C1=C/c1ccc(N2CCOCC2)cc1,5.86
4,C1=C(c2ccccc2)CCN(c2nc3ccccc3n3cnnc23)C1,-8.21
5,Cc1cccc2cc(CN(Cc3ccco3)C(=O)NC3CCCCC3)c(=O)[nH]c12,-38.9
6,O=C(CN1C2CCC1CC(NC(=O)Nc1ccccc1)C2)NCc1ccco1 (centres unmarked),-35.7
7,COc1cc(S(=O)(=O)n2ccnc2)ccc1Br,3.28
8,COCCNC(=O)Cn1nc(C)c2ccccc2c1=O,5.11
9,CCc1ccc([C@@H]2CC=C(C(=O)O)[C@H](c3ccccc3)N2S(=O)(=O)c2ccc(C)cc2)cc1,17.9
10,CC(SC1=Nc2ccccc2C2CC=NN12)C(=O)NC1(C#N)CCCCC1 (centres unmarked),-19.8
11,NS(=O)(=O)c1ccc(CCNC(=O)c2ccc(C#CC3(O)CCCCC3)cc2)cc1,5.8
12,O=C(Cn1cc(S(=O)(=O)N2CCN(c3ccccc3F)CC2)c2ccccc2c1=O)NCCCN1CCCCCC1,-61.1
13,CC(C)(C)OC(=O)CNC(=O)c1[nH]cnc1C(=O)NCC(=O)OCc1ccccc1,-13.2
14,CCOc1ccccc1NC(=O)C(NCC1(N2CCCCC2)CCCCC1)c1ccccc1.O=C(O)C(=O)O (centres unmarked),-70.9
15,O=C(NC1(C(F)(F)F)Oc2ccccc2O1)N1CCC2(CC1)OCCO2,-11.6
16,CC(C)OC(=O)CSc1n[nH]c(-c2cccnc2)n1,19.1
17,COc1ccc(C(=O)NCCS(=O)(=O)N2CCc3ccccc3C2)c(OC)c1,-26.7
18,Cc1ccc(S(=O)(=O)N2CCOCC2)cc1C(=O)N(C)CCOc1ccc(Cl)cc1,-64
19,ClC(Cl)(c1nnnn1-c1ccccc1)c1nnnn1-c1ccccc1,-4.27
20,CCC(C)NC(=O)Cn1cc2c(n1)CCC(C)C2 (centres unmarked),13.8
21,O=C(NC(=S)Nc1ccc(Cl)cc1)c1ccccc1,21.3
22,CN1CCN(c2nc(Nc3ccc(O)cc3)nc3ccccc23)CC1.Cl,-34.9

row,SMILES,"hERG current change (%, negative = inhibition) at 10uM [%]"
1,O=C(Nc1cc(-c2ccccc2)nn1-c1ccccc1)c1ccccc1F,-25.4
2,COC(=O)c1c(=O)n(O)c2ccc(OC)cc2[n+]1[O-],8.73
3,COc1ccc(N2CCN(c3ccc(C(N)=O)cc3[N+](=O)[O-])CC2)cc1,2.51
4,Cc1cc(C)cc(OCCNC(=O)CCc2ccccc2)c1,4.83
5,O=C(CCN1C(=O)c2ccccc2S1(=O)=O)Nc1ccc(Cl)cc1,22.9
6,CCOc1ccc(CN2CCN(CCCc3ccccc3)C(CCO)C2)cc1 (centres unmarked),-75.5
7,COC(=O)c1c(NC(=S)NN2CCN(C)CC2)sc2c1CCC(C)C2 (centres unmarked),43.7
8,COc1ccc(-c2c(C(C)=O)c(C)nc3sc4c(=O)[nH]nnc4c23)cc1,8.95
9,Cc1ccccc1CSc1nnc(-c2ccccc2)c(=O)[nH]1,18.9
10,CC(C)CCCCCCNC(=S)Nc1ccc(S(=O)(=O)N2CCOCC2)cc1,0.149
11,O=C(CN1C(=O)c2ccccc2C1=O)Nc1nc(-c2cccc([N+](=O)[O-])c2)cs1,-0.66
12,Nc1nnc(SCC(=O)Nc2ccc(Cl)c(C(=O)O)c2)s1,19.8
13,Cc1nc(NC(=O)CSc2ccc(-c3nc4ccccc4[nH]3)cn2)sc1C,6.22
14,O=C(Nc1ccccc1)Nc1cccn(Cc2c(F)cccc2Cl)c1=O,12.5
15,COCCn1c(=O)[nH]c2cc(C(=O)NCC3CCCO3)ccc2c1=O (centres unmarked),-7.76
16,Cc1ccc(NC(=O)C(C)N=C2NS(=O)(=O)c3ccccc32)cc1F (centres unmarked),18.8
17,O=c1c2c3c(sc2nc(NCCOCCO)n1Cc1ccco1)CCCCC3,-6.8
18,Cc1cccc(-n2cc(C#N)c(=O)[nH]c2=O)n1,19.3
19,COC(=O)c1cn(C(=O)c2cc(OC)cc(OC)c2)c2ccccc12,6.84
20,O=C(OCC(=O)N1CCN(C(=O)c2ccco2)CC1)c1ccccc1O,-18.2
21,C=CCSc1nc(=O)n2cccc(C)c2n1,-18.7
22,COc1ccc2c(CC(=O)N(C)CC3COc4ccccc4O3)coc2c1 (centres unmarked),-0.947
